The campaign covered roughly 310,000 compounds. About 14,000 (4.5%) showed an effect of 50% or more. The effect is printed as a negative number. The list shows a part of the results.
target: human ether-à-go-go-related gene (hERG) potassium channel (human, UniProt Q12809); experiment: primary screen, population patch clamp on CHO cells stably expressing hERG
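Also: peak tail current of the secondary pulse compared with the same well before compound.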

human ether-à-go-go-related gene (hERG) potassium channel, sequence (Q12809 whole entry, looked up): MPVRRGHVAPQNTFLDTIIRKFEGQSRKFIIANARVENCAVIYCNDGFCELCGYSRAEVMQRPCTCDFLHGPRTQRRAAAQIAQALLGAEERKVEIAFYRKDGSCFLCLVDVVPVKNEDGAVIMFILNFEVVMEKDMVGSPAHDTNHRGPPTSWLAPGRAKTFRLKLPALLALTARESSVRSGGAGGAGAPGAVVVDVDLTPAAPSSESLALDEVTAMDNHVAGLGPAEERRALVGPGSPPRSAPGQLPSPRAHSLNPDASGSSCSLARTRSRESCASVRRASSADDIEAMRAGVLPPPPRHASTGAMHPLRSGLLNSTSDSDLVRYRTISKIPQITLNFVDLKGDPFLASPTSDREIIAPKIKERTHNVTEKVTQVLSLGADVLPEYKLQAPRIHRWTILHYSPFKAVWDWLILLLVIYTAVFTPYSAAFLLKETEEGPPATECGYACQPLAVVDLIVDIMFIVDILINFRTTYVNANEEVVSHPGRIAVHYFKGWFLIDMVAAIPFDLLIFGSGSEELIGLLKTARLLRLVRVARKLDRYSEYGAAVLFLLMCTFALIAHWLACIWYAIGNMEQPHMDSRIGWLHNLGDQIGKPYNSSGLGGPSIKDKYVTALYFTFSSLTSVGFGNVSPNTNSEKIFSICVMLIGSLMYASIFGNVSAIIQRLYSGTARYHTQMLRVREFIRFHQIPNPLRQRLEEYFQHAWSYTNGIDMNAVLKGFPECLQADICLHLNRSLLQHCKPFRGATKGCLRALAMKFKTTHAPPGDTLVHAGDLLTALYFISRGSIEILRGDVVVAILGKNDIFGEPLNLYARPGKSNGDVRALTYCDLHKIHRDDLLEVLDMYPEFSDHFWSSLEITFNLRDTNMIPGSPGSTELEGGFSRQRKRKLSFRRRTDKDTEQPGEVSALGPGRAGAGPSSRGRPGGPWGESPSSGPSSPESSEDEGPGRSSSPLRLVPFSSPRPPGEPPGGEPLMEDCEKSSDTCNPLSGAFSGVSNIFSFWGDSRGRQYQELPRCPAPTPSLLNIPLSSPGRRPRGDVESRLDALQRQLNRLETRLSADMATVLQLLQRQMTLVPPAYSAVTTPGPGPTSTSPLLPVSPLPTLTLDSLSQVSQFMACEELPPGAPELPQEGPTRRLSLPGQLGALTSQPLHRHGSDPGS

Row | Compound | hERG current change (%, negative = inhibition) at 10uM
1 | CCN1CCN(C(=S)NC(=O)/C=C/c2cccs2)CC1 | 22.7%
2 | C#CCn1cc(Cl)cc(C(=O)Nc2ccccc2)c1=O | 19.3%
3 | CCN(CC)c1ccc(NC(=O)CSc2ccsc2[N+](=O)[O-])c(C)c1 | 5.74%
4 | O=C(CSC(=S)N1CCCC1)N1CCN(S(=O)(=O)c2ccccc2F)CC1 | -25.3%
5 | O=C(NCc1ccccc1)c1ccc(N2CCC3(CC2)CC(c2ccccc2)=NO3)c([N+](=O)[O-])c1 | 5.28%
6 | Cc1ccc(Cn2nc(-c3ccccc3)nc2-c2ccccc2)cc1 | -2.45%
7 | COc1ccc(N2CCN(C(=O)CNS(=O)(=O)c3ccc(Br)s3)CC2)cc1 | -27.6%
8 | O=C(NNc1nc2c(F)cc(F)cc2s1)C1COc2ccccc2O1 (centres unmarked) | -18.5%
9 | CC(C)(C)NC(=O)c1cccc2c1OC(C)(C)C2 | -7.3%
10 | O=c1[nH]cnc(O)c1C(c1ccc2c(c1)OCO2)c1c(O)nc[nH]c1=O | 4.14%
11 | O=C1NC[C@H](c2ccccc2)N(CCC23CC4CC(CC(C4)C2)C3)C1=O | 23.9%
12 | Cc1oc(-c2ccccc2)nc1CC(=O)O | 8.97%
13 | COc1cc(-c2nnc(NC(=O)C3=COCCO3)o2)cc(OC)c1OC | -8.14%
14 | Fc1ccccc1C1CCN(Cc2nc(CC3CC3)no2)C1 (centres unmarked) | 2.1%
15 | CCC(C(=O)OCn1nnc2ccccc2c1=O)c1ccccc1 (centres unmarked) | -11.5%
16 | CCN(CC)S(=O)(=O)c1cccc(-c2nnc(SCC(=O)NC3CCCCCC3)n2N)c1 | -40.6%
17 | Cc1ccc(C2=NNC(C(O)C(O)C(O)C(O)CO)S2)cc1 (centres unmarked) | 2.26%
18 | Cc1cccn2c(=O)c(C(=O)NCCCN3CC(C)CC(C)C3)c(O)nc12 (centres unmarked) | -20.3%
19 | Cc1ccccc1-n1c(O)c(/C=N/Nc2nc3c(c(=O)n(C)c(=O)n3C)n2C)c(=O)[nH]c1=S | 3.65%

Row | Compound | hERG current change (%, negative = inhibition) at 10uM
20 | Cc1ccc(C)c(NC(=O)CCc2c(C)nn(-c3ccc(N4CCCCC4)nn3)c2C)c1 | 1.13%
21 | CCCCn1c(SCC(=O)c2ccccc2)nc2c1c(=O)[nH]c(=O)n2C | -13.8%
22 | Cc1ccccc1C(=O)NNC(=O)CN1C(=O)c2ccccc2C1=O | 11.6%
23 | Cc1ccc2c(c1)N(CC(=O)NC1CCC(C)CC1)C(=O)c1cccnc1O2 (centres unmarked) | -8.15%
24 | COc1cc(/C=N/Nc2cccc3cccnc23)cc(OC)c1O | 12.8%
25 | COc1ccc(S(=O)(=O)N2CCCCC2)cc1NC(=O)CNc1ccc(F)cc1C | 13.9%
26 | COc1ccc(-c2oc3ncnc(NCCCN4CCOCC4)c3c2-c2ccc(OC)cc2)cc1 | 2.49%
27 | COc1ccccc1CN1CCC(n2nccc2NC(=O)c2ccccc2Cl)CC1 | -76.2%
28 | C/C(=N\NC(=O)c1ccc(Br)cc1)c1ccccc1 | 1.2%
29 | CC(C)[C@H](NC(=O)N1CCn2c1nc1ccccc12)C(=O)N[C@H](Cc1ccccc1)C(=O)O | 6.38%
30 | Cc1ccc(C(=O)COC(=O)c2nc3nccc(C)n3n2)c(C)c1 | -7.14%
31 | c1ccc(COC2CCCN(Cc3nc(-c4cccs4)no3)C2)nc1 (centres unmarked) | -3.95%
32 | Cc1ccc(NC(=O)C2=CCN(S(=O)(=O)c3ccc(F)cc3)CC2)c(C)c1 | 7.49%
33 | Cc1ccccc1NC(=O)Cc1cccs1 | 0.074%
34 | CCOC(=O)c1ccc(NC(=O)CCc2nc(-c3ccccc3)no2)cc1 | 4.66%
35 | O=C1Nc2ccccc2N2CCCC12 (centres unmarked) | 8.4%
36 | CC(C)c1ccc(NC(=S)NCCc2c[nH]c3ccccc23)cc1 | 10.8%
37 | Cn1c(=O)[nH]c(=O)c2c1nc(Br)n2CCSc1nc2ccccc2o1 | -1.02%
38 | NNC(=O)c1cc2c(ccc3ccccc32)o1 | -8.53%

Row | Compound | hERG current change (%, negative = inhibition) at 10uM
39 | Cc1nn(C)c2ncc(C(N)=O)c(Oc3ccc(Cl)cc3)c12 | 7.24%
40 | CCOC(=O)c1cccc(NC(=O)C2CCCN2S(=O)(=O)c2cccc3cccnc23)c1 (centres unmarked) | -6.12%
41 | O=C(CSc1nnc(-c2ccccc2F)n1C1CC1)Nc1cccnc1Cl | -0.702%
42 | CCc1nnc(SCC(=O)N2CCCC(N3CCN(c4ccccc4C)CC3)C2)o1 (centres unmarked) | -24.2%
43 | O=C(N/N=C\c1ccoc1)c1ccco1 | 7.28%
44 | Cc1cc(C(=O)Nc2c(F)cc(F)cc2Br)c(C)o1 | -1.93%
45 | NNC(=O)CN1C(CN2CCOCC2)=Nc2ccc(Br)cc2C1c1ccccc1 (centres unmarked) | -48.9%
46 | Cc1ccccc1NS(=O)(=O)c1ccc(OCC(=O)N2CCN(C)CC2)cc1 | 1.27%
47 | NC(=O)c1ccc(Oc2ccc3c(c2)CCC3)c([N+](=O)[O-])c1 | -11%
48 | CC(C)N1CCc2c(sc(NC(=O)c3nc4ccccc4s3)c2C(N)=O)C1.Cl | -45.1%
49 | O=C(N/N=C/c1cn(Cc2ccccc2)c2ccccc12)c1cc(O)cc(O)c1 | 19.5%
50 | CCOC(=O)c1cnn(-c2ccc(C)cc2)c1N | -1.1%
51 | O=C(CCc1c[nH]c2ccccc12)N1CCCCCCC1 | 5.91%
52 | COc1ccc(-n2nc3c(c2NC(=O)CBr)CSC3)cc1 | 7.81%
53 | O=C(NCc1ccccc1Cl)c1cnc2ccccc2n1 | -2.3%
54 | CCN(CC)S(=O)(=O)c1ccc(C)c(NC(=O)CNc2cccc(S(=O)(=O)N3CCCC3)c2)c1 | 1.08%
55 | CCCCCOc1ccc(/C=C/C(=O)NCCc2nc3ccccc3[nH]2)cc1OC | 30.1%
56 | Cc1ccc(S(=O)(=O)Nc2c(C)n(C)n(-c3ccccc3)c2=O)cc1C(=O)OCC(=O)N1CCCC(C)C1 (centres unmarked) | -16.1%
